# Reference: the RNAGym collection of RNA variant scans (doi:10.1093/nar/gkz1192)
# The source gives no read counts; variants with many changes may rest on few reads.
# B1: CPEB3 Ribozyme (parent)
# chain: UAACAGGGGGCCACAGCAGAAGCGUUCACGUCGCAGCCCCUGUCAGAUUCUGGUGAAUCUGCGAAUUCUGCUGUAUAUCUC
# Variants of: B1
# Experiment: self-cleavage, relative activity (ratio to wild type); higher = more cleavage; in vitro, sequencing
# How it was run: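 Relative activity compares each variant's cleaved/total read fraction with that of the unmutated ribozyme. To get these fractions, barcoded CPEB3 ribozyme libraries from rounds of error-prone PCR were transcribed with T7 RNA polymerase for 5 hours at 37°C and then given 15 min of DNase I treatment before EDTA was added. The RNAs were reverse transcribed with template switching and sequenced on Illumina, and DNA sequencing linked barcodes to variants. A minimum of 5 reads applied, and three batches were averaged.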
row,Variant,self-cleavage
1,UAACAGGGGGCCACUGUAGAAGCGUUCACGUCGCAGCCCCUGUCAGAUUCUGGUGAAUCUGCGAAUUCCGCUGCAUAUCUC [A15U C17U U69C U74C],0.16
2,UAACAGGGGGCCACUCCAGAGGCGUUCACGCCGCAGCCCCCGUCAGAUUCUGGUGAAUCUGCGAAUUCUGCUGUAAAUCUC [A15U G16C A21G U31C U41C U76A],0.31
3,UAACAGGGGGCCACUGAAGAAGCGUUCACGUCGCAGCCCCCGUCAGAUUCAGGUGGAUCUGCGAAUUCUGCUGUAUAUCUC [A15U C17A U41C U51A A56G],0.11
4,UAACAGGGGGCCACUGCAGAAGCGUUCACGUCGCAGCCCACGUCAGAUUCUGGUGAAUCUGCGAAUUCUGCUGAAUAUCUC [A15U C40A U41C U74A],0.28
5,UAACAGGGGGCCACUGCAGAAGCGUUCACGUCGCUGCCCCUGCCAGAUUCUGGUGAAUCUGCGAGUUCUGCCGUGUAUCUC [A15U A35U U43C A65G U72C A75G],0.06
6,UAACAGGGGGCCACUGCAGAAGCGUUCACGUCGCAGCCCCUGUCAGAUUCUGGUGAAUCUGCGAAUUCUGUUGAAUAUCUC [A15U C71U U74A],0.62
7,UAACAGGGGGCCACUGCAGAAGCGUUUACGACGCAGCCCCUGUCAGGUUCUGGUGAAUCUGCGAACUCUGCUGUAUAUCUC [A15U C27U U31A A47G U66C],0.07
8,UAACAGGGGGCCACUGCAGAAGUGUUCACGUCGCAGCCCCUGUCAGAUCCUGGUGAAUCUGCGAAUUCAGCUGUAUAUCUC [A15U C23U U49C U69A],0.14
9,UAACAGGGGGCCACUGCAGAAGCGUUCACGUCGCAGCCCCUGUCGGAUUCUGGUGAAUCUGCGAAUUCUACUGUAUAUCUC [A15U A45G G70A],0.09
10,UAACAGGGGGCCACUGCAGAAGCGUUCACGUCGCGGCCCCUGUCAGAUUCUGGUGGGUCUGCGAAUUCUGCUGUAUAUCCC [A15U A35G A56G A57G U80C],1.26
11,UAACAGGGGGCCACUGCAGAAGCGUUCGCGUCGCAGCCCCUGUCAGAUUCUGGUGAAUCUGCGAUUUCUUCUGUAUAUCUC [A15U A28G A65U G70U],0.07
12,UAACAGGGGGCCACUGCAGAAGCGUUCACGUCGCGGCCCUUGUCAGAUUCUGGUGAGUCUGCGAAUUCUGCUGCAUAUCUC [A15U A35G C40U A57G U74C],1.27
13,UAACAGGGGGCCACUGUAGAAGCGUCCACGUCGUAGCCCCUGUCAGAUUCUGGUGAAUCUGCGAAUUCUGCUGUAAGUCUC [A15U C17U U26C C34U U76A A77G],0.19
14,UAACAGGGGGCCACUGCAGAAGCGUUCACGUCGUAGCCCCUGUCAGAUUCUGGUGAACCUGCGAGUUCUGCUGUAUAUCUC [A15U C34U U58C A65G],0.06
15,UAACAGGGGGCCACUGCAGAAGCGUUCACGUCGCGGCCCCUGGCAGAUACUGGUGAAUCUGCGGAUUCUGCUGUAUAUCUC [A15U A35G U43G U49A A64G],0.08
16,UAACAGGGGGCCACUGCAGAAGCGUUCACGUCGCAGCCCCUGUCAGAUUCUGGUGUAUCUGCGAAUUCCGCUGUAUAUCUC [A15U A56U U69C],0.19
17,UAACAGGGGGCCACUGGAGAGGCGCUCACGUCGCAGCCCCUGUCAGGUUCUGGUGAAUCUGCGAAUUCGGCUGUAUAUCUC [A15U C17G A21G U25C A47G U69G],0.05

row,Variant,self-cleavage
1,UAACAGGGGGCCACUGCAGAAGCGUUCACGUCGCAGCCCCUGUCGGAUUCUGGUGAAUCUGCGAUUUCUGCUGUAUAUCUC [A15U A45G A65U],0.55
2,UAACAGGGGGCCACUGCAGAAGCGUUCUCGUCGCAGGCCCUGUCAGAUUCUGGUGAAUCUGCGAAUUCUGCUGUAUAUCUC [A15U A28U C37G],0.15
3,UAACAGGGGGCCACUGCAGAAGCGUUCUCGUCGCAGCCCCUGCCAGAUUCUGGUGAGUCUGCGAAUUCUGCUGUAUAUCAC [A15U A28U U43C A57G U80A],0.28
4,UAACAGGGGGCCACUGCAAAAGCGUUCGCGCCGCAGCCCCUGACAGAUUCUGGUGAAUCUGCGAAUUCUGCUGUAUAUCUC [A15U G19A A28G U31C U43A],0.1
5,UAACAGGGGGCCACUGCAGAAGCGUUCACGUCGCAGCCCCUGUUAGAUUCUGGCGAAUCUGCGAAUUCUGCUGUAUAUCUC [A15U C44U U54C],0.16
6,UAACAGGGGGCCACUGCAGAAGCGUUCACGUCGCAGCCCCUGUCCGAUUCUGGUGAAUCUGCGAACUCUGCUGUAUAUCUC [A15U A45C U66C],0.13
7,UAACAGGGGGCCACUGCAGAAGCGUUCAUGUCGCAGCCCCUGUCAGAUUCUGGUGAAUCUGCGGACUCUGCCGUAUAUCUC [A15U C29U A64G U66C U72C],0.09
8,UAACAGGGGGCCACUACAGAAGCGCUCACGUCGCAGCCCCUGUCAGAUUCUGGUGAAUCUGCGAAUUCUGCUGUAUAUCUC [A15U G16A U25C],0.18
9,UAACAGGGGGCCACUGCAGAAGCGUUCACGUCGCUGCCCCUGUCAGAUUCUGGCGAAUCUGCGAAUACUGCUGUAUACCCC [A15U A35U U54C U67A U78C U80C],0.09
10,UAACAGGGGGCCACUGCAGAAGCGUUCACGUCGCAGCCCCUGUCAGAUUCUGGUGAAUCUGCGACUACUGCUGUUUAGCUC [A15U A65C U67A A75U U78G],0.1
11,UAACAGGGGGCCACUGCAGAAGCGUUCGCGUCGCAGCCCCUGUCAGAUUCUGGUGGAUCUGCGAAUUCUGCUGUAUAUCUC [A15U A28G A56G],0.17
12,UAACAGGGGGCCACUGCAGAAGCGUUCAUGUCGCAGCCCCUGUCAGAUUCUGGUGAAUCUGCGAAUUCUGCUGUAUACCUC [A15U C29U U78C],0.38
13,UAACAGGGGGCCACUGCAGAAGCGUUCACGUCGCAGCUCCUGUCGGAUUCUGGUGAAUCCGCGAAUUCUGCUGUAUAUCUC [A15U C38U A45G U60C],0.81
14,UAACAGGGGGCCACUGCAGAAGCGUUCACGUCGCAGCCCCUGUCAGAUUCUGGUGGAUCUGCGAAUUCUGCAGUAUAUCUC [A15U A56G U72A],0.58
15,UAACAGGGGGCCACUGCAGAAGCGUUCACGUCGCGGCCCCUGUCAGAUUCUGGUGAAUCUGCGAAUUCUUCUGUAUAUCUC [A15U A35G G70U],0.77
16,UAACAGGGGGCCACUGCAGAAGCGUUCGCGUCGCAGCCCCUGUCAGAUUCUGGUGAAUCUGCGAAUUCUGCAGUAUAACUC [A15U A28G U72A U78A],0.44
17,UAACAGGGGGCCACUGCAGAAGCGUUCAUGUCGCAGCCCGUGCCAGAUUCUGGUGAAUCCGCGAAUUCUGCUGUAUAUCUC [A15U C29U C40G U43C U60C],0.17
